In paper PMC10688982:
Where two headings read alike, the source gives them in different places. Results are given in words; binding and its absence hold for the method and conditions named. Binding seen in cells or lysates may run through a third protein. Some binding calls cover weakened binding; strength is not graded here. For some of these results: Sequences can lack the tags named with a protein.

Chains of the proteins cited; added tags and fusions are not shown.
UniProt P54252: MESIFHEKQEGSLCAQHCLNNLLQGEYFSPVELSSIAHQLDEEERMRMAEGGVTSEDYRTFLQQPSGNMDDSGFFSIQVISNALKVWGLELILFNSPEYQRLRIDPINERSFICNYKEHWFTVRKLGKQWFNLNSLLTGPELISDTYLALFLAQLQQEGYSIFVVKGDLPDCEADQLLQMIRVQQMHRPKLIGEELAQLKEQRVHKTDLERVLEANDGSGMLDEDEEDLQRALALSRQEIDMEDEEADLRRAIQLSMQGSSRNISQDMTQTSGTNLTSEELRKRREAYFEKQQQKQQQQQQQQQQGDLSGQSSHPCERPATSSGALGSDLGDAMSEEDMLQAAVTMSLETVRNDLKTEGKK
UniProt Q16665: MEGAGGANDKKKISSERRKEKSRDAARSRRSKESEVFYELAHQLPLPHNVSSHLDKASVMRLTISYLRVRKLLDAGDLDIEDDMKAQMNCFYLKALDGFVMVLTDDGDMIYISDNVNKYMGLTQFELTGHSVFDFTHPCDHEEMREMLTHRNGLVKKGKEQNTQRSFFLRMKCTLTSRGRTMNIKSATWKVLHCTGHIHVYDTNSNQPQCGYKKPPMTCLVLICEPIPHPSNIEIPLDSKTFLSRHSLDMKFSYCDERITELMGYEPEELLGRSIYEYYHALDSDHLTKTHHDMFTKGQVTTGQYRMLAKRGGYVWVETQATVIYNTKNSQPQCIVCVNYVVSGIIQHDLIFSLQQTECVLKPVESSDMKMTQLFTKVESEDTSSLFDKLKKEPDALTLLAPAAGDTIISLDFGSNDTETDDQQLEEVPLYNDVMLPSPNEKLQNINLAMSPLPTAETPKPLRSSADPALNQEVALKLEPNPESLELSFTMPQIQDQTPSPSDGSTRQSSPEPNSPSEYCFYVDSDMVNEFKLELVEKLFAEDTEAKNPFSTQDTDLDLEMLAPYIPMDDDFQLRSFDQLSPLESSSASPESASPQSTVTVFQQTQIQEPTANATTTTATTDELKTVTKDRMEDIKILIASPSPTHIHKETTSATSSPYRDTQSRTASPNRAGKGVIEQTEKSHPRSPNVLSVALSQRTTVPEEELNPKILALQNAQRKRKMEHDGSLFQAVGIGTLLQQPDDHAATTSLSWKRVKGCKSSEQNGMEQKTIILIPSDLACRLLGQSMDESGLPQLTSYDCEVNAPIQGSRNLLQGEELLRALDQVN
UniProt Q99814: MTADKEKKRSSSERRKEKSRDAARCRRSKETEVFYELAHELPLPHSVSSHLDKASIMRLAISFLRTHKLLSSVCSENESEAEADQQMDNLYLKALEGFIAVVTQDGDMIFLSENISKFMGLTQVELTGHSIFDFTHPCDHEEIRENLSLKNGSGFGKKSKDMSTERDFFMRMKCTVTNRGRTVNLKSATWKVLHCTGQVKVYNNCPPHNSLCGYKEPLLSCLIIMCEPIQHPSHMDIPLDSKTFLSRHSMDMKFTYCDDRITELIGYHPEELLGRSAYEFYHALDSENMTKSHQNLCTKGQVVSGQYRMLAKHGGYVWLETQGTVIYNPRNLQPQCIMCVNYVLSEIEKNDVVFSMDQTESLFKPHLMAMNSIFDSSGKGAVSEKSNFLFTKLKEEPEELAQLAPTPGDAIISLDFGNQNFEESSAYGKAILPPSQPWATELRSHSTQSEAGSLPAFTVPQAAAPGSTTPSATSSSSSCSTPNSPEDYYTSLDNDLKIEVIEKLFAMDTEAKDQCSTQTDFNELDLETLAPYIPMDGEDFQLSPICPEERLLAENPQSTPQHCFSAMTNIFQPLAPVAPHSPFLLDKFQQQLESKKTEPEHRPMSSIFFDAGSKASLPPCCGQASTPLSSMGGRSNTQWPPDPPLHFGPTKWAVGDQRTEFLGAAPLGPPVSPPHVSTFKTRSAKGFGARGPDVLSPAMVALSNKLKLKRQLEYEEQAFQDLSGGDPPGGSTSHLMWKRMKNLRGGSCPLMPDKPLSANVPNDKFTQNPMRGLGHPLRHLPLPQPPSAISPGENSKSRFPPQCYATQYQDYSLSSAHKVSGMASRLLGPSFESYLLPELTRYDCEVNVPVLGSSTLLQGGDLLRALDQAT
UniProt Q04207: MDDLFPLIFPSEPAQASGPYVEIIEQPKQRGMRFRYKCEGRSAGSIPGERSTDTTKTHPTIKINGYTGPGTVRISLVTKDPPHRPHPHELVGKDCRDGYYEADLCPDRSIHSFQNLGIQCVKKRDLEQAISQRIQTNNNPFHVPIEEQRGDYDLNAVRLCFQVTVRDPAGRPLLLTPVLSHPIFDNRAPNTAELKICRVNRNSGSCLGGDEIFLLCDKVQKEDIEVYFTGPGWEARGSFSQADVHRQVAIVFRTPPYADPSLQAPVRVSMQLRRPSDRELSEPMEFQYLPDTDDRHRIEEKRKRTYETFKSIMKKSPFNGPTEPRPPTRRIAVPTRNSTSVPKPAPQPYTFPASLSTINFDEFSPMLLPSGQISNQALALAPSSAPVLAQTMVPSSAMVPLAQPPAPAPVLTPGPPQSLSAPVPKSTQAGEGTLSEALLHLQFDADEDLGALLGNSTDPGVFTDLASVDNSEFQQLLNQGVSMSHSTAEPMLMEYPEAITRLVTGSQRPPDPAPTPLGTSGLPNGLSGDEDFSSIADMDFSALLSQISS
UniProt P42224: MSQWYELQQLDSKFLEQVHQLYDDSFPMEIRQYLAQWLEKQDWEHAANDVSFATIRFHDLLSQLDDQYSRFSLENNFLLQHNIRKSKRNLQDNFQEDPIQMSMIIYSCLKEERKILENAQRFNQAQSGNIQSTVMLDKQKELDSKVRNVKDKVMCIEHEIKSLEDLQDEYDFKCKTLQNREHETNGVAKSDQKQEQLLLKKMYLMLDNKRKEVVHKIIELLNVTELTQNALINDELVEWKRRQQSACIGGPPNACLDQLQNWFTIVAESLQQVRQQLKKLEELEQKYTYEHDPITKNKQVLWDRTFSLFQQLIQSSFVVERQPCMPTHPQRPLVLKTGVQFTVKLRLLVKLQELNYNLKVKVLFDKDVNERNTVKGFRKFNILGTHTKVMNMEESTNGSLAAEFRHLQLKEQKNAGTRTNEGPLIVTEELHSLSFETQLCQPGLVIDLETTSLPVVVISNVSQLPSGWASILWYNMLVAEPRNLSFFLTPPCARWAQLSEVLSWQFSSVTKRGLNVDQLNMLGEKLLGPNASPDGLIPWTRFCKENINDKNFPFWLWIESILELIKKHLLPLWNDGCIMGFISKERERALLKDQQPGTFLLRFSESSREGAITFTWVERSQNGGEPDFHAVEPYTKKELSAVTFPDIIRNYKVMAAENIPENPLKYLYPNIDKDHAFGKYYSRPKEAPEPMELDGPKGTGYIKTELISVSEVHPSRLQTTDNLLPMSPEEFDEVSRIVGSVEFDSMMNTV
UniProt P40763: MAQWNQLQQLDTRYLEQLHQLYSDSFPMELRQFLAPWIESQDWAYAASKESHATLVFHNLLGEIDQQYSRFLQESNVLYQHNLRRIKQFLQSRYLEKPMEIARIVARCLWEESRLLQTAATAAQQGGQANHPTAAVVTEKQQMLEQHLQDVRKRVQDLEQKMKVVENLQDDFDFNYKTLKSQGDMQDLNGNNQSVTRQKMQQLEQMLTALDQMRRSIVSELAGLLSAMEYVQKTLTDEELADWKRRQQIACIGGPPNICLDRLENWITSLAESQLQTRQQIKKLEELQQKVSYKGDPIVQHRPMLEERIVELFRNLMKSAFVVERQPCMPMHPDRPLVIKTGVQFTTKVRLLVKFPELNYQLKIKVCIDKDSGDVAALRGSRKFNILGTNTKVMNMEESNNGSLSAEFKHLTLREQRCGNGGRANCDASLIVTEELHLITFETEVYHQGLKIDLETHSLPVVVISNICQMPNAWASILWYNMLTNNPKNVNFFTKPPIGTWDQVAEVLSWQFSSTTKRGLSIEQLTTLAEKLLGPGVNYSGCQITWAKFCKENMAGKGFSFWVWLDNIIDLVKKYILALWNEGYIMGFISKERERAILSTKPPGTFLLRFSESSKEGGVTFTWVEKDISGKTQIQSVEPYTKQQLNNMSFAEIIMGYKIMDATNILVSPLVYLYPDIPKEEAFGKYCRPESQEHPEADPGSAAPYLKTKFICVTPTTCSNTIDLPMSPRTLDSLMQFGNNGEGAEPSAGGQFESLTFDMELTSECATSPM
UniProt P05412: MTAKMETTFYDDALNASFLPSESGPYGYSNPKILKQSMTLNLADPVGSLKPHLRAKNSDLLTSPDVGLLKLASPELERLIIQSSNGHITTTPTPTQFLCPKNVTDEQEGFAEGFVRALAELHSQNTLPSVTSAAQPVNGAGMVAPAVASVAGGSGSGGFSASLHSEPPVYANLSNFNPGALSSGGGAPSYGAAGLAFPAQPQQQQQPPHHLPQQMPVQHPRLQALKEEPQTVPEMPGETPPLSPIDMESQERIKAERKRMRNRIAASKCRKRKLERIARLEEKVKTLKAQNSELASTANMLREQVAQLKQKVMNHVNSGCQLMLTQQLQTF
UniProt P01106: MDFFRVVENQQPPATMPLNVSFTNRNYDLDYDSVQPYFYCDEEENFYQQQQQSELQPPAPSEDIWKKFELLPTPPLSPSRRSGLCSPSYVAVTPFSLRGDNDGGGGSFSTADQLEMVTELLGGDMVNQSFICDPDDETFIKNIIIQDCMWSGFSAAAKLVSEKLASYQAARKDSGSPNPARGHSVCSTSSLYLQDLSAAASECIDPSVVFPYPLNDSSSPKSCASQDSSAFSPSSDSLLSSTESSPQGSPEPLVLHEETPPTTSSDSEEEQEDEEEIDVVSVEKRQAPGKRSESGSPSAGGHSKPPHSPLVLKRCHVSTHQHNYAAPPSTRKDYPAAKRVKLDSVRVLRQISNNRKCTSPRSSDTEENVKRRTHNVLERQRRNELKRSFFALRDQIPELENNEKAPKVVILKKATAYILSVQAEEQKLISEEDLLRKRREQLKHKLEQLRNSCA

What was measured:
[1] = target: ATXN3 (transfected, tag not stated for the experiment) (human) (UniProt P54252); test: co-IP; transiently transfected HEK293T cells, harvested 48 h after transfection; RIPA lysis buffer, immunoprecipitation with the indicated antibody and Protein G Sepharose, Western blotting
FLAG-ATXN3 (human) = FLAG-ATXN3 (human) (UniProt P54252); test: as above
[2] = target: ATXN3 (endogenous, A549 cells) (human (endogenous in A549)) (UniProt P54252); test: co-IP; endogenous proteins in A549 cells; RIPA lysis buffer, immunoprecipitation with the indicated antibody and Protein G Sepharose, Western blotting
[3] = target: ATXN3 (transfected, tag not stated for the experiment) (human) (UniProt P54252); test: co-IP; both proteins overexpressed; cells not named in the sentence (Supplemental Table 1)
[4] = target: ATXN3 (transfected, tag not stated for the experiment) (human) (UniProt P54252); test: co-IP; transiently transfected HEK293T cells, harvested 48 h after transfection; RIPA lysis buffer, immunoprecipitation with the indicated antibody and Protein G Sepharose, Western blotting; remark: listed apart in the source
[5] = target: ATXN3 (endogenous, A549 cells) (human (endogenous in A549)) (UniProt P54252); test: co-IP; endogenous proteins in A549 cells; RIPA lysis buffer, immunoprecipitation with the indicated antibody and Protein G Sepharose, Western blotting; remark: listed apart in the source
[6] = target: ATXN3 (endogenous, cells not named) (UniProt P54252); test: co-IP; endogenous proteins, cells not named in the text (Supplemental Figure 6B)

HA-HIF-1α (from UniProt Q16665 1-826) was tested, and the binding [1] was “no binding”.

HA-HIF-2α (from UniProt Q99814 1-870) was tested, and the binding (FLAG-ATXN3 (human)) was “binds”.

For “HIF-2α (endogenous, A549 cells) (from UniProt Q99814 1-870)”, the binding [2] was “binds”.

With NF-κB (p65) (from UniProt Q04207 1-549) the binding [3] was “no binding”.

“STAT1 (A549 cells) (from UniProt P42224 1-750)” was tested, and the binding [2] was “no binding”.

For “STAT3 (endogenous, A549 cells) (from UniProt P40763 1-770)”, the binding [2] was “binds”.

With “STAT3 (transfected) (from UniProt P40763 1-770)” the binding [1] was “binds”.

With c-Jun (from UniProt P05412 1-331) the binding [1] was “no binding”.

For c-MYC (from UniProt P01106 1-454), the binding [1] was “no binding”.

B1: FLAG-IRF1 (protein, UniProt P10914 1-325)
chain: MPITRMRMRPWLEMQINSNQIPGLIWINKEEMIFQIPWKHAAKHGWDINKDACLFRSWAIHTGRYKAGEKEPDPKTWKANFRCAMNSLPDIEEVKDQSRNKGSSAVRVYRMLPPLTKNQRKERKSKSSRDAKSKAKRKSCGDSSPDTFSDGLSSSTLPDDHSSYTVPGYMQDLEVEQALTPALSPCAVSSTLPDWHIPVEVVPDSTSDLYNFQVSPMPSTSEATTDEDEEGKLPEDIMKLLEQSEWQPTNVDGKGYLLNEPGVQPTSVYGDFSCKEEPEIDSPGGDIGLSLQRVFTDLKNMDATWLDSLLTPVRLPSIQAIPCAP
B1 was tested, and the binding [4] was “binds”.

B2: IRF1 (endogenous, A549 cells) (protein, UniProt P10914 1-325)
chain: MPITRMRMRPWLEMQINSNQIPGLIWINKEEMIFQIPWKHAAKHGWDINKDACLFRSWAIHTGRYKAGEKEPDPKTWKANFRCAMNSLPDIEEVKDQSRNKGSSAVRVYRMLPPLTKNQRKERKSKSSRDAKSKAKRKSCGDSSPDTFSDGLSSSTLPDDHSSYTVPGYMQDLEVEQALTPALSPCAVSSTLPDWHIPVEVVPDSTSDLYNFQVSPMPSTSEATTDEDEEGKLPEDIMKLLEQSEWQPTNVDGKGYLLNEPGVQPTSVYGDFSCKEEPEIDSPGGDIGLSLQRVFTDLKNMDATWLDSLLTPVRLPSIQAIPCAP
With B2 the binding [5] was “binds”.

B3: JunB (transfected) (protein, UniProt P17275 1-347)
chain: MCTKMEQPFYHDDSYTATGYGRAPGGLSLHDYKLLKPSLAVNLADPYRSLKAPGARGPGPEGGGGGSYFSGQGSDTGASLKLASSELERLIVPNSNGVITTTPTPPGQYFYPRGGGSGGGAGGAGGGVTEEQEGFADGFVKALDDLHKMNHVTPPNVSLGATGGPPAGPGGVYAGPEPPPVYTNLSSYSPASASSGGAGAAVGTGSSYPTTTISYLPHAPPFAGGHPAQLGLGRGASTFKEEPQTVPEARSRDATPPVSPINMEDQERIKVERKRLRNRLAATKCRKRKLERIARLEDKVKTLKAENAGLSSTAGLLREQVAQLKQKVMTHVSNGCQLLLGVKGHAF
In the case of B3, the binding [4] is reported as “binds”.

B4: JunB (endogenous, cells not named) (protein, UniProt P17275 1-347)
chain: MCTKMEQPFYHDDSYTATGYGRAPGGLSLHDYKLLKPSLAVNLADPYRSLKAPGARGPGPEGGGGGSYFSGQGSDTGASLKLASSELERLIVPNSNGVITTTPTPPGQYFYPRGGGSGGGAGGAGGGVTEEQEGFADGFVKALDDLHKMNHVTPPNVSLGATGGPPAGPGGVYAGPEPPPVYTNLSSYSPASASSGGAGAAVGTGSSYPTTTISYLPHAPPFAGGHPAQLGLGRGASTFKEEPQTVPEARSRDATPPVSPINMEDQERIKVERKRLRNRLAATKCRKRKLERIARLEDKVKTLKAENAGLSSTAGLLREQVAQLKQKVMTHVSNGCQLLLGVKGHAF
For B4, the binding [6] was “binds”.
